# The list shows a part of the results.
# Key:
# Assay in all cases: glycan array binding signal (z-score within array); higher = stronger binding
# Conditions in all cases: glycan notation: IUPAC condensed, linker removed
# [1] = target: Man(a1-3)[Man(a1-6)]Man(b1-4)GlcNAc(b1-4)GlcNAc
# Summary of the method: (§1)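 The Consortium for Functional Glycomics database supplied 3228 glycan arrays, of which those lacking an available protein sequence were dropped. The binding signal, a within-array Z-score, was averaged across arrays of the same protein sequence and across linkers. Negative scores can be read as non-binding.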
# [2] = target: Man(a1-3)[Man(a1-6)]Man(b1-4)GlcNAc(b1-4)[Fuc(a1-6)]GlcNAc
# Summary of the method: as §1
# Man(a1-6)Man = target: Man(a1-6)Man
# Summary of the method: as §1
# Man(b1-4)GlcNAc = target: Man(b1-4)GlcNAc
# Summary of the method: as §1
# MurNAc(b1-4)GlcNAc = target: MurNAc(b1-4)GlcNAc
# Summary of the method: as §1
# Neu5Ac(a2-3)Gal = target: Neu5Ac(a2-3)Gal
# Summary of the method: as §1
# [3] = target: Neu5Ac(a2-3)Gal(b1-3)GalNAc
# Summary of the method: as §1
# [4] = target: Neu5Ac(a2-3)Gal(b1-3)GalNAc(b1-3)Gal(a1-4)Gal(b1-4)Glc
# Summary of the method: as §1
# [5] = target: Neu5Ac(a2-3)Gal(b1-3)GalNAc(b1-3)Gal(b1-4)GlcNAc
# Summary of the method: as §1
# [6] = target: Neu5Ac(a2-3)Gal(b1-3)GalNAc(b1-4)[Neu5Ac(a2-3)]Gal(b1-4)Glc
# Summary of the method: as §1
# [7] = target: Neu5Ac(a2-3)Gal(b1-3)GalNAc(b1-4)[Neu5Ac(a2-8)Neu5Ac(a2-3)]Gal(b1-4)Glc
# Summary of the method: as §1
# [8] = target: Neu5Ac(a2-3)Gal(b1-3)GalNAc6S
# Summary of the method: as §1
# [9] = target: Neu5Ac(a2-3)Gal(b1-3)GlcNAc
# Summary of the method: as §1
# [10] = target: Neu5Ac(a2-3)Gal(b1-3)GlcNAc(b1-2)Man
# Summary of the method: as §1
# [11] = target: Neu5Ac(a2-3)Gal(b1-3)GlcNAc(b1-2)Man(a1-3)[GlcNAc(b1-4)][Neu5Ac(a2-3)Gal(b1-3)GlcNAc(b1-2)Man(a1-6)]Man(b1-4)GlcNAc(b1-4)GlcNAc
# Summary of the method: as §1
# [12] = target: Neu5Ac(a2-3)Gal(b1-3)GlcNAc(b1-2)Man(a1-3)[Neu5Ac(a2-3)Gal(b1-3)GlcNAc(b1-2)Man(a1-6)]Man(b1-4)GlcNAc(b1-4)GlcNAc
# Summary of the method: as §1
# [13] = target: Neu5Ac(a2-3)Gal(b1-3)GlcNAc(b1-3)Gal(b1-3)GlcNAc
# Summary of the method: as §1
# [14] = target: Neu5Ac(a2-3)Gal(b1-3)GlcNAc(b1-3)Gal(b1-4)GlcNAc
# Summary of the method: as §1
# [15] = target: Neu5Ac(a2-3)Gal(b1-3)GlcNAc(b1-3)GalNAc
# Summary of the method: as §1
# [16] = target: Neu5Ac(a2-3)Gal(b1-3)GlcNAc(b1-4)Gal(b1-4)Glc
# Summary of the method: as §1
# [17] = target: Neu5Ac(a2-3)Gal(b1-3)GlcNAc(b1-6)GalNAc
# Summary of the method: as §1
# [18] = target: Neu5Ac(a2-3)Gal(b1-3)GlcNAc6S
# Summary of the method: as §1
# [19] = target: Neu5Ac(a2-3)Gal(b1-3)[Fuc(a1-4)]GlcNAc
# Summary of the method: as §1
# [20] = target: Neu5Ac(a2-3)Gal(b1-3)[Fuc(a1-4)]GlcNAc(b1-3)Gal(b1-3)[Fuc(a1-4)]GlcNAc
# Summary of the method: as §1
# [21] = target: Neu5Ac(a2-3)Gal(b1-3)[Fuc(a1-4)]GlcNAc(b1-3)Gal(b1-4)[Fuc(a1-3)]GlcNAc
# Summary of the method: as §1
# [22] = target: Neu5Ac(a2-3)Gal(b1-3)[GlcNAc(b1-6)]GalNAc
# Summary of the method: as §1
# [23] = target: Neu5Ac(a2-3)Gal(b1-3)[Neu5Ac(a2-3)Gal(b1-4)]GlcNAc
# Summary of the method: as §1
# [24] = target: Neu5Ac(a2-3)Gal(b1-3)[Neu5Ac(a2-6)]GalNAc
# Summary of the method: as §1
# [25] = target: Neu5Ac(a2-3)Gal(b1-3)[Neu5Ac(a2-6)]GlcNAc(b1-3)[Fuc(a1-3)[Gal(b1-4)]GlcNAc(b1-6)]Gal(b1-4)Glc
# Summary of the method: as §1
# [26] = target: Neu5Ac(a2-3)Gal(b1-3)]Neu5Ac(a2-3)Gal(b1-4)]GlcNAc
# Summary of the method: as §1
# Neu5Ac(a2-3)Gal(b1-4)Glc = target: Neu5Ac(a2-3)Gal(b1-4)Glc
# Summary of the method: as §1
# [27] = target: Neu5Ac(a2-3)Gal(b1-4)GlcNAc
# Summary of the method: as §1
# [28] = target: Neu5Ac(a2-3)Gal(b1-4)GlcNAc(b1-2)Man
# Summary of the method: as §1
# [29] = target: Neu5Ac(a2-3)Gal(b1-4)GlcNAc(b1-2)Man(a1-3)[GlcNAc(b1-2)Man(b1-4)GlcNAc(b1-2)Man(a1-6)]Man(b1-4)GlcNAc(b1-4)GlcNAc
# Summary of the method: as §1
# [30] = target: Neu5Ac(a2-3)Gal(b1-4)GlcNAc(b1-2)Man(a1-3)[GlcNAc(b1-4)][Neu5Ac(a2-3)Gal(b1-4)GlcNAc(b1-2)Man(a1-6)]Man(b1-4)GlcNAc(b1-4)GlcNAc
# Summary of the method: as §1
# [31] = target: Neu5Ac(a2-3)Gal(b1-4)GlcNAc(b1-2)Man(a1-3)[Neu5Ac(a2-3)Gal(b1-4)GlcNAc(b1-2)Man(a1-6)]Man(b1-4)GlcNAc(b1-4)GlcNAc
# Summary of the method: as §1
# [32] = target: Neu5Ac(a2-3)Gal(b1-4)GlcNAc(b1-2)Man(a1-3)[Neu5Ac(a2-3)Gal(b1-4)GlcNAc(b1-2)Man(a1-6)]Man(b1-4)GlcNAc(b1-4)[Fuc(a1-6)]GlcNAc
# Summary of the method: as §1
# [33] = target: Neu5Ac(a2-3)Gal(b1-4)GlcNAc(b1-2)Man(a1-3)[Neu5Ac(a2-6)Gal(b1-4)GlcNAc(b1-2)Man(a1-6)]Man(b1-4)GlcNAc(b1-4)GlcNAc
# Summary of the method: as §1
# [34] = target: Neu5Ac(a2-3)Gal(b1-4)GlcNAc(b1-2)[Neu5Ac(a2-3)Gal(b1-4)GlcNAc(b1-4)]Man(a1-3)[GlcNAc(b1-4)][Neu5Ac(a2-3)Gal(b1-4)GlcNAc(b1-2)[Neu5Ac(a2-3)Gal(b1-4)GlcNAc(b1-6)]Man(a1-6)]Man(b1-4)GlcNAc(b1-4)GlcNAc
# Summary of the method: as §1
# [35] = target: Neu5Ac(a2-3)Gal(b1-4)GlcNAc(b1-2)[Neu5Ac(a2-3)Gal(b1-4)GlcNAc(b1-4)]Man(a1-3)[GlcNAc(b1-4)][Neu5Ac(a2-3)Gal(b1-4)GlcNAc(b1-4)Man(a1-6)]Man(b1-4)GlcNAc(b1-4)GlcNAc
# Summary of the method: as §1
# [36] = target: Neu5Ac(a2-3)Gal(b1-4)GlcNAc(b1-2)[Neu5Ac(a2-3)Gal(b1-4)GlcNAc(b1-6)]Man(a1-6)[Neu5Ac(a2-3)Gal(b1-4)GlcNAc(b1-2)Man(a1-3)]Man(b1-4)GlcNAc(b1-4)GlcNAc
# Summary of the method: as §1
# [37] = target: Neu5Ac(a2-3)Gal(b1-4)GlcNAc(b1-2)[Neu5Ac(a2-3)Gal(b1-4)GlcNAc(b1-6)]Man(a1-6)[Neu5Ac(a2-3)Gal(b1-4)GlcNAc(b1-2)Man(a1-3)][GlcNAc(b1-4)]Man(b1-4)GlcNAc(b1-4)GlcNAc
# Summary of the method: as §1
# [38] = target: Neu5Ac(a2-3)Gal(b1-4)GlcNAc(b1-3)Gal
# Summary of the method: as §1
# [39] = target: Neu5Ac(a2-3)Gal(b1-4)GlcNAc(b1-3)Gal(b1-3)GlcNAc
# Summary of the method: as §1
# [40] = target: Neu5Ac(a2-3)Gal(b1-4)GlcNAc(b1-3)Gal(b1-4)GlcNAc
# Summary of the method: as §1
binder,measurement,setting,value
EEA (Euonymus europaeus) (protein) MASTIIATGPTYRVYCRAAPNYNMIVGKGVAFLAPIDETNELQYWYKDDTYSYIKDEAGLPAFSLVNKATGLTLKHSNHHPVPVKLVTYNPNVVDESVLWSQADDRGDGYSAIRSLTNPASHLEAAPLNDWSYNGAIIMGGVWIDAYNQQWKIEPHTG,glycan array binding signal (z-score),[1],-0.186
same,glycan array binding signal (z-score),[2],-0.211
same,glycan array binding signal (z-score),Man(a1-6)Man,-0.169
same,glycan array binding signal (z-score),Man(b1-4)GlcNAc,-0.125
same,glycan array binding signal (z-score),MurNAc(b1-4)GlcNAc,-0.199
same,glycan array binding signal (z-score),Neu5Ac(a2-3)Gal,-0.154
same,glycan array binding signal (z-score),[3],-0.163
same,glycan array binding signal (z-score),[4],-0.24
same,glycan array binding signal (z-score),[5],0.029
same,glycan array binding signal (z-score),[6],-0.223
same,glycan array binding signal (z-score),[7],-0.195
same,glycan array binding signal (z-score),[8],-0.231
same,glycan array binding signal (z-score),[9],-0.171
same,glycan array binding signal (z-score),[10],-0.109
same,glycan array binding signal (z-score),[11],-0.134
same,glycan array binding signal (z-score),[12],-0.131
same,glycan array binding signal (z-score),[13],-0.181
same,glycan array binding signal (z-score),[14],-0.156
same,glycan array binding signal (z-score),[15],-0.099
same,glycan array binding signal (z-score),[16],-0.192
same,glycan array binding signal (z-score),[17],-0.187
same,glycan array binding signal (z-score),[18],-0.092
same,glycan array binding signal (z-score),[19],-0.255
same,glycan array binding signal (z-score),[20],-0.246
same,glycan array binding signal (z-score),[21],-0.228
same,glycan array binding signal (z-score),[22],-0.244
same,glycan array binding signal (z-score),[23],-0.202
same,glycan array binding signal (z-score),[24],-0.2
same,glycan array binding signal (z-score),[25],-0.285
same,glycan array binding signal (z-score),[26],-0.268
same,glycan array binding signal (z-score),Neu5Ac(a2-3)Gal(b1-4)Glc,-0.124
same,glycan array binding signal (z-score),[27],-0.24
same,glycan array binding signal (z-score),[28],-0.18
same,glycan array binding signal (z-score),[29],-0.231
same,glycan array binding signal (z-score),[30],-0.266
same,glycan array binding signal (z-score),[31],-0.22
same,glycan array binding signal (z-score),[32],-0.166
same,glycan array binding signal (z-score),[33],-0.239
same,glycan array binding signal (z-score),[34],-0.275
same,glycan array binding signal (z-score),[35],-0.274
same,glycan array binding signal (z-score),[36],-0.137
same,glycan array binding signal (z-score),[37],-0.26
same,glycan array binding signal (z-score),[38],-0.197
same,glycan array binding signal (z-score),[39],-0.196
same,glycan array binding signal (z-score),[40],-0.188

# From the supplement of paper PMC8728848
